According to PubChem BioAssay AID463173 (ICCB-Longwood Screening Facility, Harvard Medical School, 2010):
The whole screen tested about 52,000 compounds, of which about 1,700 (3.3%) were called active. Rule as the data show it: active = survival mostly below about 52% (no sharp cut-off); inactive = mostly above about 56%. The list shows a part of the results.

Tested on: Wild type
Experiment: S. aureus survival, RN4220 and DeltatarO strains – OD600, teichoic acid synthesis inhibitors, primary screen (AID 463173)
Conditions: S. aureus RN4220 wild type/DeltatarO growth, OD600, 18 h, active compounds read low, screened at 18.75 µg/mL (by protocol)

SMILES	survival
CN(C)S(=O)(=O)c1ccc(S(=O)(=O)N(Cc2ccccc2F)C2CC2)cc1	inactive: 106%
Cc1c(-c2nc(-c3ccc4c(c3)OCO4)no2)nnn1-c1cccc(C(F)(F)F)c1	inactive: 72%
Cc1ccc(Cl)cc1N1CCN(C(=O)COCc2cc(-c3ccc4c(c3)OCO4)on2)CC1	inactive: 69%
Cc1cc2c(cc1S(=O)(=O)Nc1cccc(Cl)c1C)OCCN2C	inactive: 51%
COc1ccc(-c2nc3ccccc3o2)cc1NC(=O)c1ccc(-c2cccc(Cl)c2C)o1	inactive: 70%
COc1cccc(NC(=O)C2CCN(c3nnc(-n4c(C)ccc4C)s3)CC2)c1	inactive: 77%
Cc1ccc(CNC(=O)C2CCCN(Cc3nc(-c4cccc(C)c4)oc3C)C2)cc1 (stereo not given)	active: 4%
Cc1ccc(-c2nc3c(c(SCC(=O)Nc4cccc(C(=O)O)c4)n2)Cc2cccc(C)c2O3)cc1	inactive: 67%
CC1=C(C(=O)Nc2cccc(C(F)(F)F)c2)C2(CCN(C(C)C)CC2)OC1=O	inactive: 91%
CCN(CC)CCNC(=O)c1ccc2c(=O)n3nc(Nc4ccccc4)sc3nc2c1	inactive: 73%
CCOc1cc(C2C(C(=O)OC)=C(C)NC3=C2C(=O)c2ccccc23)cc(Br)c1OCC (stereo not given)	inactive: 62%
COc1ccc(N2CC(C(=O)N/N=C/c3ccccc3)CC2=O)cc1 (stereo not given)	inactive: 109%
COc1ccc(CNC(=O)CS(=O)(=O)c2cccc3nsnc23)cc1	inactive: 124%
Cc1cc(C)c(NC(=O)Cc2ccc(-n3c(C)nc4cccnc43)cc2)c(C)c1	inactive: 74%
Cn1nnc2cc(NC(=O)NC3CCCCC3)ccc21	inactive: 102%
CC1=C(C(=O)OC2CCCCCC2)C(c2ccc(Cl)cc2)CC(=O)N1 (stereo not given)	inactive: 88%
COc1ccc(Cl)cc1C(=O)NCc1nc(-c2cccc(C)c2)no1	inactive: 87%
O=C(c1ccc([N+](=O)[O-])cc1)N1c2ncnn2C2(CCCCC2)[C@@H]2CCCC[C@@H]21	inactive: 83%
Cc1ccc(OC(=O)CSc2nnc(-c3cccs3)o2)c(C)c1	inactive: 80%
CC(=O)Nc1ccc(NC(=O)C2Cc3ccccc3N2C(=O)c2ccccc2)cc1 (stereo not given)	inactive: 73%
COc1ccc(Cn2c(CCC(=O)Nc3ccccc3OC)nc3cccnc32)cc1	inactive: 158%
Cc1ccc2nc(-c3ccco3)c(Nc3ccc4c(c3)OCCO4)n2c1	inactive: 95%
N=c1oc2ccccc2cc1C(=O)Nc1ccccc1	inactive: 112%

SMILES	survival
COc1ccc(CNC(=O)c2ccc(-c3nc(CS(=O)c4ccc(C)cc4)c(C)o3)cc2)cc1 (stereo not given)	inactive: 71%
COc1cccc2[nH]c(C(=O)NCc3ccc4c(c3)CCN4C(=O)c3ccc(F)cc3)cc12	inactive: 72%
CCc1c(C)nc2nc(-c3ccccc3)nn2c1NCc1ccc(C)cc1	active: -1%
NC(=O)/C=C/C(=O)Nc1ccc2c(c1)OCO2	inactive: 89%
O=C(CSc1cn(CCNC(=O)c2c(F)cccc2F)c2ccccc12)Nc1ccccc1F	inactive: 81%
Cc1oc2ccc(O)c(CN3CCCC(C)C3)c2c1C(=O)Nc1ccccc1 (stereo not given)	inactive: 91%
CC(C)OCCCn1c(=O)c2ccccc2n2c(-c3ccccc3F)nnc12	inactive: 88%
COc1ccc2c(c1)c(=O)c(C(=O)c1ccc(Cl)cc1)cn2CC(=O)Nc1ccc2c(c1)OCCO2	inactive: 127%
Cc1ccc2nc(-c3c[nH]c4ccccc34)c(Nc3ccc(F)cc3)n2c1	inactive: 72%
Cc1ccc(CNC(=O)C(C)n2c(=O)cc(-c3ccccc3)c3c(C)nn(C)c32)cc1 (stereo not given)	inactive: 71%
O=C(O)CC1CCCC(c2ccccc2)C1=O (stereo not given)	inactive: 104%
Cc1oc(-c2ccccc2Cl)nc1CSc1nncn2c1cc1occc12	inactive: 80%
COc1ccc(Br)cc1CNC(=O)Cn1ncn2nc(-c3cccs3)cc2c1=O	inactive: 85%
Cc1ccc(-c2nnn3c2nc(NCc2ccc4c(c2)OCO4)c2ccccc23)cc1	inactive: 82%
COc1ccccc1N1CCN(C(=O)c2ccc3c(c2)CCN3S(=O)(=O)c2ccccc2)CC1	inactive: 95%
O=C(CCS(=O)(=O)c1cccc2nonc12)Nc1ccc(F)cc1F	inactive: 135%
COc1ccc2c(Sc3ccccc3)c(C(=O)NCc3cc(Br)ccc3OC)[nH]c2c1	inactive: 97%
CCCn1c(SCC(=O)c2ccc3c(c2)OCCO3)nnc1-c1ccco1	inactive: 100%
O=C(CC(c1cccs1)N1Cc2ccccc2C1=O)Nc1cccc(F)c1 (stereo not given)	inactive: 87%
CCCn1ccc2c(OCC(=O)Nc3ccc(OC)c(OC)c3)cccc2c1=O	inactive: 69%
Cc1ccc(OCC(=O)Nc2nc(-c3ccc(Br)cc3)ns2)cc1	inactive: 79%
COc1ccccc1CNC(=O)c1ccc(CSc2nc3ccncc3n2Cc2cccc(F)c2)cc1	inactive: 86%
CC(=O)N1NC(=Nc2ccccc2)SC1(C)C	inactive: 121%

SMILES	survival
CCOc1ccccc1CNc1nc2nc(C)c(CC(=O)OC)c(=O)n2[nH]1	inactive: 91%
Cc1cccc(-c2nc(C)c(CCNC(=O)C(=O)Nc3ccc(C)c(C)c3)s2)c1	inactive: 79%
O=C(CSc1nc(=O)[nH]c2c1CCC2)NCc1ccc(F)cc1	inactive: 71%
CC1CCN(C(=O)c2ccc(Br)cc2)CC1	inactive: 106%
CC(=O)Nc1ccc(C(=O)N2CCc3ccccc3C2)cc1	inactive: 109%
COc1ccc(Cl)cc1S(=O)(=O)N1CCN(C(=O)c2cc(-c3ccc(Br)cc3)n[nH]2)CC1	inactive: 60%
Cc1ccc(-n2ncc3c(N4CCN(Cc5ccccc5)CC4)ncnc32)cc1	inactive: 131%
Cc1cccc(C(=O)Nc2ccc(S(=O)(=O)N3CCCCC3c3cccnc3)cc2)c1 (stereo not given)	inactive: 82%
COc1ccc(OC)c(NS(=O)(=O)c2ccc(Br)s2)c1	inactive: 60%
CCOc1ccc(NC(=O)c2oc3ccccc3c2NC(=O)Cc2cccc(C)c2)cc1	inactive: 81%
CCCCC(c1nnnn1C(C)C)N1CCN(c2ccc(F)cc2)CC1 (stereo not given)	inactive: 101%
CN1CCN(CCC(=O)Nc2ccc(Cl)cc2)CC1	inactive: 63%
COc1ccc(C(=O)Oc2ccc(C(c3c(C)[nH][nH]c3=O)c3c(C)[nH][nH]c3=O)cc2OC)cc1	inactive: 73%
CC(C)c1ccc(NC(=O)CCNS(=O)(=O)c2cccc3nsnc23)cc1	inactive: 69%
Cc1cccc(NC(=O)CSc2nc(=O)n(Cc3cccnc3)c3c2CCC3)c1	inactive: 136%
COc1ccc(NC(=O)c2c(C)oc3ccc(O)c(CN4CCOCC4)c23)cc1	inactive: 87%
CCCN1C(C(=O)c2ccccc2)=C(OC(=O)c2ccc(C)cc2)c2ccccc2S1(=O)=O	inactive: 74%
Cc1ccc(NC(=O)Cn2c(=O)ccc3cc(S(=O)(=O)N4CCC(C)CC4)ccc32)cc1C	inactive: 73%
O=C(COc1ccc(Cl)cc1)NCCc1csc(-c2cccc(F)c2)n1	inactive: 125%
CCc1nnc(NC(=O)CC2CC3CCC2C3)s1 (stereo not given)	inactive: 98%
COc1cc(NC(=O)c2ncn(-c3ccccc3)n2)cc(OC)c1	inactive: 71%
CC(=O)NC1C(OC2CCCCC2)OC(CO)C(O)C1O (stereo not given)	inactive: 109%
CC(=O)c1ccc(NC(=O)CSc2nccn2Cc2ccc3c(c2)OCO3)cc1	inactive: 124%

SMILES	survival
Cc1cc(SCC(=O)NCc2ccc(F)cc2)nc(=O)[nH]1	inactive: 68%
Cn1ncc(C(=O)N2CCN(c3ccccc3F)CC2)c1C1CCN(C(=O)OC(C)(C)C)CC1	inactive: 74%
CCCCN(CC)CCCNC(=O)c1cn(CC)c2ccc(S(=O)(=O)N3CCOCC3)cc2c1=O	inactive: 81%
CCOc1ccccc1-n1nnc(S(=O)(=O)c2ccc(C)cc2)c1N	inactive: 85%
Cc1ccc(NC(=O)c2nc(-c3ccncc3)no2)c(Cl)c1	inactive: 118%
COc1ccc(C2N3CC4(C)CN2CC(c2ccccc2)(C3)C4=O)cc1 (stereo not given)	inactive: 88%
O=C(COCc1cc(-c2ccco2)on1)Nc1cccc(Cl)c1Cl	active: 0%
Cc1ccc(NC(=O)CSc2nc(-c3ccco3)cc(C(F)(F)F)n2)cc1C	inactive: 50%
CCOc1ccc(NC(=O)CN2CCN(c3ccc(Cl)cc3)CC2)cc1	inactive: 77%
CC1(C)C/C(=N\O)c2cc3c(nc2C1)CCCC3	inactive: 103%
COc1ccc(OC)c(CCNC(=O)c2cc3c(=O)n(C)c4ccccc4c3n2C)c1	inactive: 60%
COC(=O)c1ccc([C@@H]2Nc3c(C)cc(C)cc3[C@@H]3C=CC[C@@H]32)cc1	inactive: 87%
O=C(c1cc(F)cc(F)c1)N1CCC(c2nc(-c3ccc(S(=O)(=O)N4CCCC4)cc3)no2)CC1	inactive: 87%
CCOC(=O)c1cccc(NC(=O)C2CCCN(S(=O)(=O)c3cc(Br)cc4c3N(C(=O)CC)CC4)C2)c1 (stereo not given)	inactive: 98%
COc1ccc(CN(C(=O)Cc2coc3ccc(C)cc23)C2CCS(=O)(=O)C2)cc1 (stereo not given)	inactive: 78%
CCc1cccc(NC(=O)CCN2C(=O)c3ccccc3Sc3ncccc32)c1	inactive: 75%
Cc1cc(=O)n2nc(N(C)CC(=O)NCc3ccc(Cl)cc3)sc2n1	inactive: 85%
O=C(NCC1CCN(Cc2ccc(F)cc2)CC1)c1cc2ccc3cccnc3c2[nH]1	inactive: 66%
CCOc1ccc(NC(=O)Cn2c(=O)oc3cc(S(=O)(=O)N4CCC(C)CC4)ccc32)cc1	inactive: 124%
COc1cc(Cl)c(C)cc1NC(=O)c1cc2c(s1)-c1c(C)cccc1OC2	inactive: 99%
O=C(Cn1c(=O)nc(-c2ccccc2)c2cc(Cl)ccc21)NCCc1ccccc1	inactive: 69%
